Measured values reported in the supplement of paper PMC4967469.

Experiments:
Assay in all cases: Viability of human cancer cell lines after 72 h of drug (GDSC screen)
JNK-9L = compound: Fc1cc(-c2ccnc(Nc3ccc(-n4cnc(N5CCOCC5)n4)cc3)n2)cc(N2CCOCC2)c1 [JNK-9L]; settings: top dose 5.12 µM; top dose inferred
Method: (§1)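 Human cancer cell lines in 384-well plates, medium with 10% serum, drug for 72 h over a 256-fold dose range (nine 2-fold or five 4-fold steps up to the top dose). Adherent lines were fixed and stained with the nucleic acid dye Syto60, suspension lines read with resazurin; signal relative to control wells, capped at 0 and 100%. One two-parameter sigmoid per drug and line, fitted in a mixed model over all curves with the slope shared within a line.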

OSU-03012 = compound: NCC(=O)Nc1ccc(-n2nc(C(F)(F)F)cc2-c2ccc3c(ccc4ccccc43)c2)cc1 [OSU-03012]; settings: top dose 16 µM; top dose inferred
Method: as §1

5-Fluorouracil = compound: O=c1[nH]cc(F)c(=O)[nH]1 [5-Fluorouracil]; settings: top dose 32 µM; top dose inferred
Method: as §1

QS11 = compound: OC[C@H](Cc1ccccc1)Nc1nc(Oc2ccc3c(c2)CCC3)nc2c1ncn2Cc1ccc(-c2ccccc2)cc1 [QS11]; settings: top dose 10.24 µM
Method: as §1

CUDC-101 = compound: C#Cc1cccc(Nc2ncnc3cc(OC)c(OCCCCCCC(=O)NO)cc23)c1 [CUDC-101]; settings: top dose 5.12 µM; top dose inferred
Method: as §1

RDEA119 = compound: COc1cc(F)c(F)c(Nc2ccc(I)cc2F)c1NS(=O)(=O)C1(C[C@H](O)CO)CC1 [RDEA119]; settings: top dose 5 µM, top dose inferred
Method: as §1

AC220 = compound: CC(C)(C)c1cc(NC(=O)Nc2ccc(-c3cn4c(n3)sc3cc(OCCN5CCOCC5)ccc34)cc2)no1 [AC220]; settings: top dose 1.024 µM; top dose inferred
Method: as §1

Row | Cell Line | AUC (JNK-9L) | IC50 (JNK-9L) | AUC (OSU-03012) | IC50 (OSU-03012) | AUC (5-Fluorouracil) | IC50 (5-Fluorouracil) | AUC (QS11) | IC50 (QS11) | AUC (CUDC-101) | IC50 (CUDC-101) | AUC (RDEA119; screen: GDSC drug entry 1014) | IC50 (RDEA119; screen: GDSC drug entry 1014) | AUC (RDEA119; screen: GDSC drug entry 1526) | IC50 (RDEA119; screen: GDSC drug entry 1526) | AUC (AC220) | IC50 (AC220)
1 | KELLY (neuroblastoma, adherent) | 0.647 | 785 nM | 0.812 | 7610 nM | 0.376 | 941 nM | 0.954 | > 10200 nM | 0.431 | 211 nM | 0.72 | 1220 nM | 0.91 | > 5000 nM | 0.989 | > 1020 nM
2 | KGN (ovary, adherent) | 0.541 | 425 nM | 0.717 | 4770 nM | 0.529 | 2450 nM | 0.926 | > 10200 nM | 0.503 | 328 nM | 0.747 | 1890 nM | 0.882 | > 5000 nM | 0.963 | > 1020 nM
3 | KINGS-1 (glioma, adherent) | 0.845 | > 5120 nM | 0.867 | > 16000 nM | 0.846 | > 32000 nM | 0.978 | > 10200 nM | 0.501 | 322 nM | 0.74 | 2010 nM | 0.891 | > 5000 nM | 0.977 | > 1020 nM
4 | KLE (endometrium, adherent) | 0.719 | 1930 nM | 0.844 | > 16000 nM | 0.879 | > 32000 nM | 0.969 | > 10200 nM | 0.56 | 509 nM | 0.919 | > 5000 nM | 0.927 | > 5000 nM | 0.974 | > 1020 nM
5 | KM-H2 (Hodgkin lymphoma, suspension) | 0.738 |  | 0.85 | 9400 nM | 0.991 | > 32000 nM | 0.991 | > 10200 nM | 0.983 | > 5120 nM | 0.993 | > 5000 nM | 0.99 | > 5000 nM | 0.974 | > 1020 nM
6 | KMH-2 (thyroid, adherent) | 0.404 | 180 nM | 0.719 | 3850 nM | 0.981 | > 32000 nM | 0.753 | 3090 nM | 0.932 | > 5120 nM | 0.187 | 41.5 nM | 0.413 | 186 nM | 0.989 | > 1020 nM
7 | KMOE-2 (acute myeloid leukaemia, suspension) | 0.636 | 727 nM | 0.864 | 11600 nM | 0.819 | 15700 nM | 0.948 | > 10200 nM | 0.486 | 295 nM | 0.157 | 32.7 nM | 0.304 | 94.2 nM | 0.88 | 860 nM
8 | KMRC-1 (kidney, adherent) | 0.595 | 594 nM | 0.792 | 7770 nM | 0.977 | > 32000 nM | 0.987 | > 10200 nM | 0.597 | 601 nM | 0.841 | 3790 nM | 0.815 | 2970 nM | 0.987 | > 1020 nM
9 | KNS-42 (glioma, adherent) | 0.693 | 1250 nM | 0.828 | 12600 nM | 0.917 | > 32000 nM | 0.943 | > 10200 nM | 0.657 | 953 nM | 0.943 | > 5000 nM | 0.961 | > 5000 nM | 0.971 | > 1020 nM
10 | KNS-81-FD (glioma, adherent) | 0.823 | 4570 nM | 0.866 | > 16000 nM | 0.858 | > 32000 nM | 0.966 | > 10200 nM | 0.607 | 698 nM | 0.75 | 2160 nM | 0.821 | 4370 nM | 0.969 | > 1020 nM
11 | KON (head and neck, adherent) | 0.471 | 267 nM | 0.631 | 2280 nM | 0.984 | > 32000 nM | 0.857 | 8020 nM | 0.899 | > 5120 nM | 0.759 | 1710 nM | 0.828 | 2990 nM | 0.986 | > 1020 nM
12 | KOPN-8 (B-cell leukaemia, suspension) | 0.579 | 508 nM | 0.651 | 2450 nM | 0.512 | 2140 nM | 0.861 | 6760 nM | 0.165 | 37.9 nM | 0.663 | 825 nM | 0.967 | > 5000 nM | 0.936 | > 1020 nM
13 | KOSC-2 (head and neck, adherent) | 0.695 | 1160 nM | 0.757 | 5730 nM | 0.959 | > 32000 nM | 0.985 | > 10200 nM | 0.455 | 240 nM |  |  | 0.79 | 2330 nM | 0.985 | > 1020 nM
14 | KP-2 (pancreas, adherent) | 0.685 | 1100 nM | 0.644 | 2590 nM | 0.974 | > 32000 nM | 0.986 | > 10200 nM | 0.665 | 962 nM | 0.436 | 206 nM | 0.618 | 679 nM | 0.986 | > 1020 nM
15 | KP-3 (pancreas, adherent) | 0.596 | 618 nM | 0.832 | 13100 nM | 0.859 | > 32000 nM | 0.961 | > 10200 nM | 0.779 | 2520 nM | 0.746 | 1850 nM | 0.832 | 4090 nM | 0.976 | > 1020 nM
16 | KP-N-YN (neuroblastoma, adherent) | 0.684 | 1110 nM | 0.955 | > 16000 nM | 0.969 | > 32000 nM | 0.973 | > 10200 nM | 0.61 | 664 nM | 0.97 | > 5000 nM | 0.945 | > 5000 nM | 0.983 | > 1020 nM
17 | KS-1 (glioma, adherent) | 0.413 | 175 nM | 0.751 | 6440 nM | 0.888 | > 32000 nM | 0.962 | > 10200 nM | 0.525 | 381 nM | 0.664 | 1000 nM | 0.794 | 2960 nM | 0.977 | > 1020 nM

By IC50 is meant the dose at which the fit gives 50% viability; a limit (>, <) means that the fit lies beyond the doses tested. AUC, from the same fit, is the share of area under the viability curve across the 256-fold dose range; values near 1 show little effect. For some assays here: An inferred top dose comes from the curve model; the source does not state it. For some assays here: An entry number marks a drug with two screens in the source, which often give different values.
